According to PMC2687442:
No constants are given. Whether binding was seen depends on the method and setting. In cells and extracts the contact can be indirect. Some entries that bind do so weakly or less than the wild type. For some assays here: Tags and fused reporters may be left off the sequences shown. Blank lines part the entries; values can stand above or below the substance they belong to.

How the values were obtained:
[1] = molecular target: GST-DAT-CT (complete C terminus of DAT fused to GST) (human) (UniProt Q01959); assay: pull-down; in vitro binding assay: glutathione beads with 20 μg GST fusion or GST incubated with [35S]-methionine-labeled in vitro translated CPE probe, room temperature, 1 hour; washed six times with PBS with 0.1-0.5% Triton X-100; autoradiography; only the target purified
[2] = molecular target: T1, GST-DAT-NT (complete N terminus of DAT fused to GST) (human) (UniProt Q01959); assay: as above
T1 sequence: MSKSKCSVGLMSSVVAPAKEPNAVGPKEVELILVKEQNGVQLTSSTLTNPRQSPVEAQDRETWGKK

[3] = molecular target: GST-DAT-CT (complete C terminus of DAT fused to GST) (human) (UniProt Q01959); assay: pull-down; GST-fusion proteins (50 to 100 μg) on glutathione-Sepharose beads incubated with solubilized rat striatum extracts (50-100 μg protein), 4°C, 12 hr; washed with PBS with 0.1-0.5% Triton X-100; Western blot with anti-CPE; only the target purified
[4] = molecular target: T1, GST-DAT-NT (complete N terminus of DAT fused to GST) (human); assay: as above
[5] = molecular target: carboxypeptidase E (CPE), endogenous in rat striatum (rat (endogenous in striatum)) (UniProt P15087); assay: co-IP; solubilized rat striatum extracts (500 to 700 μg protein), anti-CPE antibodies, protein A/G agarose, 4°C, blot with anti-DAT; also striatal slices with or without 2 μM PMA for 30 min (association reduced by PMA)

- binding [1]: binds
- binding [2]: no binding
Substance: [35S]-methionine-labeled CPE probe, in vitro translated (from UniProt P16870 1-476)

- binding [3]: binds
- binding [4]: no binding
Substance: carboxypeptidase E (CPE), endogenous in rat striatum (from UniProt P15087 43-476)

- binding [5]: binds
Substance: dopamine transporter (DAT), endogenous in rat striatum (from UniProt P23977 1-619)
